Over roughly 16,000 sequences, “Z-score” has its median near -0.37; the highest 2% begin near 3.2. This is one part of the list.
Test system: RBM10 RRM1-ZnF (GST-tagged construct)
Assay: RNAcompete 7-mer binding Z-score; higher = stronger binding preference
Method: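 RNAcompete: 20 pmol GST-tagged RBM10 RNA-binding constructs were incubated with a designed RNA pool of about 241,000 sequences up to 41 nt (1.5 nmol) on glutathione beads for 30 min at 4 °C and washed. Bound RNAs were identified by microarray hybridisation. Each RNA 7-mer is scored by a one-sided Z-score of its enrichment, computed over probes that contain the 7-mer within longer pool sequences.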

Sequence | RNAcompete 7-mer binding Z-score
UAGAGGC | 0.722
CGACUCG | -0.519
ACAGGAG | 2.44
CCGAACA | -0.662
CUUCGCC | -0.746
CGUACCU | -0.854
UCUCGUA | -0.795
GCGUGCG | 0.703
AGGGUCA | 1.14
CCACACC | -0.288
GUGAACC | -0.00246
AUGCUGG | 0.768
AGACCGU | -0.958
CUGGUUG | 0.657
AAUUACC | -0.831
UACCAUA | -0.704
CGGUUAU | 0.115
GUCCAGA | -0.474
CGUGGCG | 1.11
AGUUAUU | -0.6
CUUAUAU | -0.737
CCUGGGC | 0.436
GAACAGG | 2.75
GCACGUU | -0.184
GUUCAGU | -0.214

Sequence | RNAcompete 7-mer binding Z-score
UCAGAUA | -0.357
AAUAGCG | 0.176
AAUACUC | -0.639
CAAAUAG | -0.21
CGCUAAU | -0.597
CACUUAC | -0.737
GCGGGGC | 2.47
AUAGAUA | -0.0999
CGGAUUA | 0.443
AUCCCCA | -0.701
GUUACGC | -0.0187
GAUAGAA | 0.335
GUCUAUG | -0.292
CCGAGUA | -0.633
AUGUAAU | -0.165
UAUGGAA | 1.22
CUCCUGG | -0.269
UCGAUUC | -0.72
GCCGACA | -0.36
UGCUCCG | -0.558
CGUUAGU | -0.298
AUCGAUG | -0.0999
UGGAAGG | 4.12
GCGGGAA | 2.66
CUAGAGU | -0.288

Sequence | RNAcompete 7-mer binding Z-score
CAACUCU | -0.928
CCCCUAC | -0.513
CCAUUCA | -0.896
GACGAUC | -0.454
CAUGGUC | 0.137
AGUGUCG | 0.0138
AAGGGCG | 3
GAUCGGU | 0.602
UGCGGAA | 1.25
UUAUUCU | -0.828
CAGUCAG | 0.082
AAUUAAC | -0.435
AUCCAAU | -0.694
CGCUGAA | -0.396
CAGUCCA | -0.578
ACCUACU | -0.746
GUCGAGA | -0.0414
UCUAGCU | -0.769
UGAAGAC | -0.0999
AUUUGUG | -0.191
AUGAAUG | 0.849
GCACGAA | -0.0544
CUCGGAA | -0.0934
CUAAAAU | -0.529
UGCGUGC | -0.34

Sequence | RNAcompete 7-mer binding Z-score
UAUCGAC | -0.701
GCCUAUU | -0.834
CUUGAUC | -0.808
UCUCACG | -0.61
AACCUCG | -0.704
GGGUAAG | 4.39
CGUCAAG | -0.145
CCGAAAG | -0.578
CUCGGAG | -0.022
UGGAGCA | 2.13
CACACAA | -0.587
GCACCGU | -0.347
CGGGUCC | 0.729
AAAUACG | -0.188
UACUUGC | -0.759
AUAUCUG | -0.539
CUAUGAC | -0.698
AUGCCUA | -0.766
GCCAAUA | -0.607
UCGCACU | -0.565
ACAGGUC | 0.03
AGUGGGA | 4.13
CGGGGGC | 2.25
CUAAGUG | -0.22
UCAAUCC | -0.72

Sequence | RNAcompete 7-mer binding Z-score
CAGACGG | 0.709
GCUCUAA | -0.613
AGUCAAU | -0.383
GACGCAG | 0.0593
AUGCCGG | -0.132
CAUCUAU | -0.769
AGGGCGG | 2.1
GAUAAAG | 1.22
GUCCUAU | -0.675
UGCCCGC | -0.191
ACGGAUC | -0.0544
GUGGUAU | 1.43
CCGAGAU | -0.392
UUCUUUA | -0.802
CUUUGUC | -0.922
UCCACAC | -0.639
CAAUUUG | -0.782
GGUCUUG | -0.11
AUACUCU | -0.818
CACCACG | -0.0187
AGGCCCU | -0.88
UCUUGUA | -0.724
UAAACGA | -0.37
UCCGUAU | -0.837
CGUUAUG | -0.214

Sequence | RNAcompete 7-mer binding Z-score
CCUCAAU | -0.86
UGCAAUU | -0.431
UGGAGGC | 1.96
ACAUUCC | -0.789
CUCCUCC | -0.558
AUUUCGA | -0.72
AUUAUCG | -0.509
GUCGCCU | -0.298
UUGCCUC | -0.733
CGUAGAG | 0.381
AGCAGCC | -0.461
CACUUUA | -0.789
GUCUGAA | -0.604
AGUCACG | 0.0138
UCGCGCG | -0.191
GCCGAGG | 0.543
CCCCCUU | -0.431
CGUAACC | -0.681
AUAAAUG | -0.103
UCACUCG | -0.561
UGAGCGU | 0.231
CAGCAGU | -0.269
CCACGAA | -0.418
AGAAUCU | -0.766
CACGCCU | -0.649

Sequence | RNAcompete 7-mer binding Z-score
UGGUACU | 0.277
AGCUUUC | -0.75
GGGUCCC | 0.917
AGGCUGA | 0.511
UGUGGCA | 0.407
GCGUUGU | -0.0707
UUAUCUC | -0.772
UUAAAAA | -0.444
CACGGAG | 0.813
UUACCGC | -0.789
UCCCAGU | -0.516
GCCUGUA | -0.701
GCCGGAG | 0.368
CAUUGCU | -0.727
UGGAACA | 1.13
CAUAAAC | -0.594
UUGGCCG | -0.149
ACAGGCG | 0.829
UCGAAAC | -0.578
UAUUCGU | -0.717
UCUAUCG | -0.711
CCCGUGC | -0.262
AUGGCAG | 1.12
CCGAAUC | -0.824
GACCACG | -0.496

Sequence | RNAcompete 7-mer binding Z-score
GCGAGCA | 0.972
GGAAAGC | 1.8
UGCUAAU | -0.604
GUGGGCC | 1.46
GGCUUAG | 0.527
AAGACCC | -0.776
AGCAACC | -0.766
AUUGGUC | 0.000789
AGUAGCA | 0.179
AUUCGAA | -0.565
CGGACAG | 0.703
UCACCAG | -0.574
UGUGUGA | 0.511
AUCUACG | -0.545
GACCGUG | -0.337
GCAAACU | -0.285
GUGAUAG | 1.16
CUAGCUU | -0.785
GGAGACG | 1.86
UAUUUUA | -0.841
UAUUUUC | -0.948
CCCCCCA | -0.249
GGGUCUU | 0.524
CCCGCAC | -0.467
ACCAGGC | -0.467

Sequence | RNAcompete 7-mer binding Z-score
CGGCAGG | 0.992
UCCACGU | -0.552
GUCGUCU | -0.542
CCACGGG | 1.12
AGCAUGC | -0.379
GCUAUCU | -0.743
GAGCGUA | 0.348
AAUGCCC | -0.613
UAAUAAA | -0.594
GAAUGUA | 0.894
ACUGGGC | 1.09
CUGACGA | -0.347
CUUGGUU | -0.279
GAUAAUU | -0.412
AACCUAC | -0.668
CUCGUAC | -0.584
GCCAGGU | 0.426
GGAAACC | 0.547
CAAGUUA | -0.402
CAUUGUU | -0.48
ACCCUCU | -0.876
GCGUUAU | -0.149
AAGAAAA | 0.102
GUGCCGU | -0.0512
AUAGCCG | -0.269

Sequence | RNAcompete 7-mer binding Z-score
ACCAGUG | -0.184
GACGACC | -0.519
AUUGACA | -0.123
CCGGACU | -0.334
AAAAGUA | 0.134
UUUUGCU | -0.776
GAAUGAA | 0.287
UGUGAGA | 0.764
UGGACGC | 0.446
CGGAACU | 0.14
GGUCUUA | -0.474
UACUAUA | -0.438
AGUCAGC | -0.262
ACUUCUG | -0.847
GUUCUAC | -0.821
ACACCAU | -0.649
UAAGCGC | -0.415
CGGUGAA | 0.595
GUAGCUG | 0.225
AACAUCA | -0.503
AAUAACA | -0.308
CUCCUGC | -0.698
AUAACGG | 0.641
CGCCGAG | -0.522
GCAACCU | -0.688

Sequence | RNAcompete 7-mer binding Z-score
AUCCUCG | -0.818
UCGCUCC | -0.629
GUUGCCA | -0.448
GCCCUAC | -0.607
UGUCGCG | -0.262
CCACAGU | -0.379
CUGUGGC | -0.0804
UCCCCAG | -0.412
GAUACUC | -0.707
UCGUACG | -0.246
CUGACAU | -0.457
CCCCACA | -0.555
GAGAAAU | 0.348
UCACCUU | -0.782
CGACCAG | -0.282
GCCGUUU | -0.951
GGUGCCC | 0.277
CUGACCA | -0.659
AGAAAGG | 4.58
GUAAGGG | 3.85
UUCGGAC | -0.539
GAGUCAG | 0.407
CGAAAGA | -0.204
GGUAGGC | 1.92
AUAGACC | -0.545

Sequence | RNAcompete 7-mer binding Z-score
AGAUGCU | -0.552
ACAGCGG | 1
UGCGAUC | -0.561
UCAUUGG | -0.123
UGAUUCU | -0.763
GGGAGAG | 2.97
CGCUCGC | -0.659
ACGGUAG | 1.13
CCUUAUG | -0.876
GGCCCCC | -0.142
UCGACGC | -0.665
UCCAGUC | -0.782
ACGCUUU | -0.886
AGCUAAG | -0.035
ACCGGUC | -0.535
UCUACAU | -0.646
GACGGGG | 3.13
CCCGACA | -0.649
GUAACAC | -0.0155
GGACACU | 0.102
CGGGAAA | 2.41
ACGGAAC | 0.651
AUAAGCC | -0.792
CUUGUCG | -0.629
CAGCGGU | 0.527

Sequence | RNAcompete 7-mer binding Z-score
GGGCCGG | 1.23
UGGUGCU | 0.956
AGCAUGG | 1.6
AUCACCU | -0.808
GUCCACC | -0.698
AUGGUGU | 2.3
UUGAAGG | 2.03
UCAGUUG | -0.353
CACUGCC | -0.522
GUGAUAC | 0.459
GUUCCCU | -0.565
ACUAUCC | -0.821
AUAAGGC | 0.342
CGUAAUC | -0.545
GUAAACA | 0.118
CCUAAGC | -0.642
CGCCUGC | -0.188
GUAAUUA | -0.35
GUGGAUG | 2.93
GCCAACG | 0.0365
AGUCGUC | -0.366
GGGAUCC | 0.647
AGGAUAG | 2.16
AGCACGU | -0.269
UGAUUUC | -0.847

Sequence | RNAcompete 7-mer binding Z-score
GUGCCUG | 0.0268
CGCCGAC | -0.607
GAUGGAC | 1.78
AGCACAA | -0.438
UAUGAUA | -0.201
AAUGCUC | -0.636
GUUUCGG | 0.865
CUUCGUU | -0.837
GAAACGC | -0.35
ACGCCAG | -0.516
GGUUUGU | 1.25
CGGCAAG | 0.209
AGACAGU | -0.249
ACCCGGA | -0.441
CCGAUGC | -0.694
UUCGGGA | 0.878
UUUGAGG | 0.495
AACGACA | -0.337
AAAUGUC | -0.529
UCGUUUU | -0.6
CAAAGAC | -0.363
CCGAGUG | 0.043
GCCGGGC | -0.126
GGCGGUU | 1.14
UUUGGCA | -0.412

Sequence | RNAcompete 7-mer binding Z-score
AGUACGU | -0.149
CCCUCUU | -0.795
GGUAGAG | 3.37
UGCAGGC | 0.248
GUAGUCC | -0.0902
UAGGUGC | 1.07
UUCGGUC | -0.457
UUCGGUU | 0.0723
GUUGGUC | 0.706
UAGGCUG | 0.508
GACGUAC | -0.22
ACUGAGC | -0.223
UUGGGCG | 2.3
GAGUCAU | -0.214
UGGGCGG | 3.38
AGCAGCA | -0.165
AUGUGAU | 0.231

Source: the supplement of paper PMC5499739
